In all, about 48,000 compounds went through this assay and about 1,200 (2.5%) were called active. Inconclusive results (about 2%) are left out.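 How the source made its calls: active means activation of at least 60% and not above a set upper limit (about 1 call in 100 departs from these limits); inconclusive means activation of 40% to 60%, or above that upper limit; inactive means activation under 40%.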 The list shows a part of the results.
What follows are compounds tested against Probable G-protein coupled receptor 32 (Homo sapiens) (UniProt O75388) (assay: qHTS for Agonists of Human Resolvin D1 Receptor DRV1). Details: CHO-K1 GPR32 beta-arrestin PathHunter luminescence, 90 min; at 76.9 µM; active compounds read high; zero percent set by DMSO-only wells.
Outline: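 Engineered CHO-K1 line co-expressing GPR32-ProLink and EA-beta-arrestin. Compound treatment lasted 90 min at 37 °C. Luminescence was recorded after 1 h with substrate at ambient temperature, relative to DMSO basal wells.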
Further: 0% is about no effect.

Sequence of UniProt O75388 (O75388 whole entry, looked up): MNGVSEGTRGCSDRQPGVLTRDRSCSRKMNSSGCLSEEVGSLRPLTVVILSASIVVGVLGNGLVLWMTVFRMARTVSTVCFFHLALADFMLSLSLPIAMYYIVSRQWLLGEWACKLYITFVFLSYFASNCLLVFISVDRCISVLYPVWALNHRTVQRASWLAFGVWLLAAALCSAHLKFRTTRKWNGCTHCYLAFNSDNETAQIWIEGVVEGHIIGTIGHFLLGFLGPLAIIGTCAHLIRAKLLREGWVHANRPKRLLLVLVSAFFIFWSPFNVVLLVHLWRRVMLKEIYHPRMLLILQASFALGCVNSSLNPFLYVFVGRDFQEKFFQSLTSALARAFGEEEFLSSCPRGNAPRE

activation, inactive:
Cc1ccc2c(n1)sc1c(=O)n(-c3cccc(C(F)(F)F)c3)nnc12 42.2%
COc1ccc(-c2nc3scc(CCNS(=O)(=O)c4cc(F)ccc4OC)n3n2)cc1OC -19.9%
CN(C(=O)CSc1nnc(-c2ccc([N+](=O)[O-])cc2)o1)C1CCCCC1 20.4%
Cc1ccc(CN2CCSc3ccc(C(=O)Nc4cc(C)cc(C)c4)cc32)cc1 -12.9%
CC(=O)N1CCc2c(sc3nc(SCC(N)=O)n(-c4ccc(F)c(Cl)c4)c(=O)c23)C1 -9.95%
Cc1ccc(CCNC(=O)CCCn2c(=O)c3ccccc3n(CC(=O)Nc3cc(Cl)ccc3C)c2=O)cc1 -12.5%
COc1ccc(CCNC(=O)c2ccc3c(c2)sc2nc(-c4ccc(C)cc4)cn23)cc1OC -3.59%
CCOc1ccc(Nc2c(S(=O)(=O)c3ccc(C)cc3)cnc3cc(OC)c(OC)cc23)cc1 -45%
COc1ccccc1NC(=O)CSC1=Nc2ccccc2C2=NC(CC(=O)NCCc3ccccc3)C(=O)N12 (stereo not drawn) -9.28%
Cc1ccc(NC(=O)C2CCN(S(=O)(=O)c3ccc4c(c3)CCCC(=O)N4)CC2)c(Cl)c1 14.8%
COc1cc(NS(=O)(=O)c2ccc3c(c2)CC(=O)N3)cc(OC)c1OC -2.37%
CCc1ccccc1NC(=O)Cn1nnc(-c2nc(-c3ccncc3)no2)c1N -17.6%
O=C(NC1(C(F)(F)F)C(=O)Nc2c1c(=O)[nH]c(=O)n2CCc1ccccc1)c1ccc(Cl)cc1 (stereo not drawn) -14.6%
O=C(NCc1ccccc1Cl)c1ccc2c(c1)nnn2C1CCCC1 -10.3%
Cc1ccc(NC(=O)c2c(C)oc3ncn(C)c(=O)c23)cc1F -9.36%
COc1cccc2c1Oc1ncccc1N(c1ccc(C(=O)NCc3ccccc3C)s1)C2 -17.2%
CCOc1ccc(NC(=O)CN2CCN(CC(=O)Nc3ccc(N(CC)CC)cc3)CC2)cc1 -12.7%
COc1cc(NS(=O)(=O)c2ccc3[nH]c(=O)[nH]c3c2)cc(OC)c1 7.33%
CCCCC(=O)Nc1ccc2nc(SCC(=O)N3CCOCC3)sc2c1 -11%
O=C(CCCc1ccccc1)NC1CC(=O)N(c2ccc(Cl)cc2)C1 (stereo not drawn) -6.12%
CC1=C(c2ccc(C(C)C)cc2)S(=O)(=O)N=C1N1CCN(c2ccc(F)cc2)CC1 -13.8%
Cc1cccc(-c2nc3c4ccccc4nc(N4CCN(c5ccc(F)cc5)CC4)n3n2)c1 12%
Cc1ccc(Cl)cc1NC(=O)c1ccc(NC(=O)N2CCSc3ncccc32)cc1 -5.77%
Cc1ccc(OCC(=O)Nc2nnc(SCc3cc(=O)c4ccccc4[nH]3)s2)cc1C 33.7%
COc1ccccc1C(=O)n1nc(-c2cccnc2)nc1NCc1ccccc1 -22.4%
COc1ccc(NC(=O)c2coc(=O)c3ccccc23)cc1OC -10.6%
CC1=Nc2cc(C(=O)NC3CCCCC3)ccc2Sc2ccc(Cl)cc21 -15.4%
CCCOc1ccc(C2C(=O)N(C3CCCCC3)CC(=O)N2CCc2ccccc2)cc1OC (stereo not drawn) 4.6%
CCOC(=O)c1cccc(NS(=O)(=O)c2cc(-c3cnc(C)o3)ccc2OC)c1 11%
CN(C)C(=O)c1ccc(NC(=O)Cn2nc(-c3ccccc3)c3ccccc3c2=O)cc1 12%
CCCCCNC(=O)c1cc2c(=O)n3ccccc3nc2n1C -9.37%
Cc1cccc(NC(=O)c2c(NC(=O)c3cccs3)sc3c2CCC(C)C3)c1 (stereo not drawn) 19.1%
CCCCNC(=O)C(CC)Sc1nnc(-c2ccc(F)cc2)c(-c2ccc(F)cc2)n1 (stereo not drawn) -22.3%
CCOC(=O)c1c(NC(=O)COc2cc(C)ccc2C(C)C)sc2c1CCCC2 -3.99%
COc1ccccc1N1CCN(C(CNC(=O)C(=O)NCCN(C)C)c2cccnc2)CC1 (stereo not drawn) 5.99%
CC(=O)Nc1ccc(OCc2cc(=O)n3ccccc3n2)cc1 -6.19%
Cc1ccc(-c2noc(-c3ccccc3NC(=O)C3CC(=O)N(c4cccc(C)c4)C3)n2)cc1 (stereo not drawn) 5.63%
CCOc1ccc(NC(=O)c2cc(=O)c3cc(CC)ccc3o2)cc1 39%
Cc1cccc(NC(=O)CSc2nc(=O)n(Cc3ccncc3)c3c2CCC3)c1C -9.21%
Oc1ccc(/C=C/c2nc(-c3ccccc3O)n(-c3ccccc3)n2)c(O)c1 -12.1%
CCOc1ccc(NC(=O)CSc2nc(-c3cccs3)cc(C(F)(F)F)c2C#N)cc1 6.27%
CCc1ccc(C2=C(C)C(N3CCC(C(=O)Nc4cccc(OC)c4)CC3)=NS2(=O)=O)cc1 -12.6%
COc1cccc(CNC(=O)C2CCN(S(=O)(=O)c3ccc4c(ccn4C)c3)CC2)c1 -20.2%
COc1ccc(-c2cn3cccnc3n2)cc1NC(=O)c1c(F)cccc1F -9.55%
CSc1ccc(C2c3[nH]c4ccccc4c3CCN2C(=O)CCc2ccccc2)cc1 (stereo not drawn) -29.2%
COc1cc(Cl)c(C)cc1NC(=O)CCn1c(=O)c2cccn2c2cccnc21 -20.2%
Cc1ccc(-n2nc3c(=O)n(CCCC(=O)NCCc4ccccc4)nc(C)c3c2C)cc1 -15%
CC(C)c1nc2ccc(C(=O)NCc3ccc(N(C)C)cc3)cc2o1 -9.47%
COc1ccc(C)cc1Nc1nc2ccccc2c2nnc(C)n12 9.83%
Cc1cccc(CCNC(=O)CCS(=O)(=O)c2cc3c(cc2Cl)NC(=O)CO3)c1 -13.8%
Cc1cccc(NC(=O)CSc2nc3c(oc4ccccc43)c(=O)n2Cc2ccco2)c1 -20.2%
CCN1CCN(C(c2cccc(F)c2)c2c(O)cc(C)n(CCOC)c2=O)CC1 (stereo not drawn) -10.5%

activation, active:
COc1cccc(CN2CCc3nc(Nc4ccc5c(c4)OCCO5)ncc3C2)c1OC 85.7%
